{
  "source": "the RNAGym collection of RNA variant scans (doi:10.7554/elife.90254)",
  "parents": {"B1": {"name": "LINE1-mini (parent)", "chain": "GGCAGAGCUCAACACAGCGUGGCAAAGUGGCUGUGGCUAGACUGCC"}},
  "note": "The source gives no read counts; variants with many changes may rest on few reads.",
  "data": [
    {"variants_of": "B1", "experiment": "self-cleavage, relative activity (ratio to wild type); higher = more cleavage; in vitro, sequencing; the parent is a self-cleaving ribozyme", "values": [
      {"variant": "A6U U9A G22U", "self-cleavage": 0.28},
      {"variant": "A6U U9A G40A", "self-cleavage": 0.13},
      {"variant": "A6U U9A G40A G44C", "self-cleavage": 0.08},
      {"variant": "A6U U9C A11G C18U A39G", "self-cleavage": 0.03},
      {"variant": "A6U U9C G22A G27C G40U", "self-cleavage": 0.04},
      {"variant": "A6U U9C G27C G40U", "self-cleavage": 0.01},
      {"variant": "A6U U9C U34A G40U", "self-cleavage": 0.03},
      {"variant": "A6U U9G A24U A26C", "self-cleavage": 0.15},
      {"variant": "A6U U9G A25U U34C G36U", "self-cleavage": 0.02},
      {"variant": "A6U U9G C10A U38A", "self-cleavage": 0.01},
      {"variant": "A6U U9G G17C", "self-cleavage": 0.42},
      {"variant": "A6U U20A G21U", "self-cleavage": 0.4},
      {"variant": "A6U U20C A24U G35A C45U", "self-cleavage": 0.1},
      {"variant": "A6U U20C A25C G29U", "self-cleavage": 0.45},
      {"variant": "A6U U20C U38G A39C", "self-cleavage": 0.01},
      {"variant": "A6U U20G A26C G30U U43C", "self-cleavage": 0.01},
      {"variant": "A6U U20G A26U C31U G35C", "self-cleavage": 0.09},
      {"variant": "A6U U28G C31U", "self-cleavage": 0.25},
      {"variant": "G7A A11C C13A G30U G40C", "self-cleavage": 0.02},
      {"variant": "G7A A11C C13G G19C A24C", "self-cleavage": 0.02},
      {"variant": "G7A A11C C13U C18G G33A G35U C42G G44U", "self-cleavage": 0.01},
      {"variant": "G7A A11C G19U C45G", "self-cleavage": 0},
      {"variant": "G7A A11C G36A A39C", "self-cleavage": 0.02},
      {"variant": "G7A A11G C23U U32C", "self-cleavage": 0.01},
      {"variant": "G7A A11G G22U G30U G33A C42G", "self-cleavage": 0},
      {"variant": "G7A A11G G29U U32C", "self-cleavage": 0.08},
      {"variant": "G7A A11G U20A G27A", "self-cleavage": 0.01},
      {"variant": "G7A A11G U28G A39U", "self-cleavage": 0.01},
      {"variant": "G7A A11U A12C A39G", "self-cleavage": 0.03},
      {"variant": "G7A A11U A25C G36A A41C", "self-cleavage": 0.03},
      {"variant": "G7A A12G G40U", "self-cleavage": 0.09},
      {"variant": "G7A A12U C13A U28C A39U", "self-cleavage": 0.13},
      {"variant": "G7A A14C A16C U34G", "self-cleavage": 0.02},
      {"variant": "G7A A14C A26G U34C G44C", "self-cleavage": 0.08},
      {"variant": "G7A A14C C18A C31A C37U", "self-cleavage": 0.15},
      {"variant": "G7A A14C U32A", "self-cleavage": 0.01},
      {"variant": "G7A A14C U34A", "self-cleavage": 0.04},
      {"variant": "G7A A14G C15A", "self-cleavage": 0.06},
      {"variant": "G7A A14G G17A G21U", "self-cleavage": 0.03},
      {"variant": "G7A A14G U32G G40U", "self-cleavage": 0.09},
      {"variant": "G7A A14U C23U C37G C46U", "self-cleavage": 0.03},
      {"variant": "G7A A16C A25G", "self-cleavage": 0.02},
      {"variant": "G7A A16C G29C G30U", "self-cleavage": 0.05},
      {"variant": "G7A A16C G30A U43C", "self-cleavage": 0.05},
      {"variant": "G7A A16G C46G", "self-cleavage": 0.39},
      {"variant": "G7A A16U C31U", "self-cleavage": 0.06},
      {"variant": "G7A A16U G17C C31A G35U C45U", "self-cleavage": 0},
      {"variant": "G7A A16U G21C", "self-cleavage": 0.12},
      {"variant": "G7A A24G A39U", "self-cleavage": 1.26},
      {"variant": "G7A A24G C31U", "self-cleavage": 0.04},
      {"variant": "G7A A24U A25G A26C G33U G35C", "self-cleavage": 0.14},
      {"variant": "G7A A25C G27C", "self-cleavage": 0.1},
      {"variant": "G7A A25G G44U", "self-cleavage": 0.12},
      {"variant": "G7A A25U C42U", "self-cleavage": 0.24},
      {"variant": "G7A A26C G29U C45A C46U", "self-cleavage": 0.19},
      {"variant": "G7A A26C U28A G35A C45A", "self-cleavage": 0.15},
      {"variant": "G7A A26C U43A", "self-cleavage": 0.07},
      {"variant": "G7A A26G A39U C45A", "self-cleavage": 0.39},
      {"variant": "G7A A26U A39C G44C", "self-cleavage": 0.11},
      {"variant": "G7A A26U G33A", "self-cleavage": 0.48},
      {"variant": "G7A A39C C46A", "self-cleavage": 0.26},
      {"variant": "G7A C8A A11U C15A G21U G35A G40A C42A", "self-cleavage": 0.02},
      {"variant": "G7A C8A A12U", "self-cleavage": 0.32},
      {"variant": "G7A C8A A12U C37U", "self-cleavage": 0.01},
      {"variant": "G7A C8A A16C U28A G30C G33C G35C", "self-cleavage": 0.4},
      {"variant": "G7A C8A C15G", "self-cleavage": 0.11},
      {"variant": "G7A C8A G17C G22U", "self-cleavage": 1.88},
      {"variant": "G7A C8A G21U G30C", "self-cleavage": 0.32},
      {"variant": "G7A C8A G30A C37U", "self-cleavage": 0.21},
      {"variant": "G7A C8A G33A G36U C46U", "self-cleavage": 0.11},
      {"variant": "G7A C8A G36C", "self-cleavage": 0.72},
      {"variant": "G7A C8A U9C C23A G40U", "self-cleavage": 0.05},
      {"variant": "G7A C8G A16U A25U U32C", "self-cleavage": 0.01},
      {"variant": "G7A C8G A24U G35C G36U", "self-cleavage": 0.11},
      {"variant": "G7A C8G G17U U32G", "self-cleavage": 0.04},
      {"variant": "G7A C8G U9A G19U A26U A39U", "self-cleavage": 0.16},
      {"variant": "G7A C8G U9G C18U", "self-cleavage": 0.01},
      {"variant": "G7A C8U A11G G17U G29U", "self-cleavage": 0.03},
      {"variant": "G7A C8U A16C A26U", "self-cleavage": 0.11},
      {"variant": "G7A C8U A25U C42U", "self-cleavage": 0.09},
      {"variant": "G7A C8U G19A G40U", "self-cleavage": 0.69},
      {"variant": "G7A C8U U32C", "self-cleavage": 0.45},
      {"variant": "G7A C10A C13G", "self-cleavage": 0.01},
      {"variant": "G7A C10A C13U G27U G33U", "self-cleavage": 0.01}
    ]}
  ]
}
